The values below come from the antibiotic and cytotoxicity screens of Wong et al. (2023).

SMILES strings stand for the structures. The list shows a part of the results.

The test system of one assay is HSkMC. Kind of assay: cytotoxicity call (relative viability < 0.9). The following applies: 10 µM.
Another assay concerns HepG2. Kind of assay: cytotoxicity call (relative viability < 0.9). The following applies: 10 µM.
Another assay deals with S. aureus RN4220. Kind of assay: growth inhibition call (relative growth <= 0.2). The following applies: 50 µM.

Regarding `CCNC(=O)C[C@H]1CC[C@H](NC(=O)C2CCOCC2)[C@@H](CO)O1`, the cytotoxicity call in the assay on HSkMC and in the assay with HepG2 was “inactive” each time. Moreover, the growth inhibition call in the assay on S. aureus RN4220 was “inactive”.
`O=C(CN1CCOCC1)N[C@@H]1CC[C@H](CCNS(=O)(=O)c2ccccc2F)O[C@@H]1CO`: the cytotoxicity call in the assay on HSkMC and in the assay with HepG2 was “inactive” each time. In addition, the growth inhibition call with S. aureus RN4220 is “inactive”.
`C[C@H](CO)N1C[C@H](C)[C@@H](CN(C)C(=O)c2ccccc2)Oc2cc(C#C[C@@H](C)O)ccc2S1(=O)=O`: the cytotoxicity call in the assay with HSkMC and in the assay on HepG2 was “inactive” each time. For the same compound, in the assay on S. aureus RN4220, the growth inhibition call was “inactive”.
With `Cc1ccc(-c2nc(-c3ccc(Cl)cc3)cs2)cc1F`, the cytotoxicity call in the assay on HSkMC and in the assay with HepG2 was “inactive” throughout. The growth inhibition call in the assay on S. aureus RN4220 is “inactive”.
As for `Cc1noc(C)c1S(=O)(=O)N(C)C[C@@H]1Oc2ccc(NS(=O)(=O)c3ccccc3)cc2CC(=O)N([C@@H](C)CO)C[C@H]1C`, the cytotoxicity call in the assay on HSkMC and in the assay on HepG2 was “inactive” throughout. The growth inhibition call with S. aureus RN4220 is “inactive”.
With `CCCCNc1cc(C(=O)O)cc(S(N)(=O)=O)c1Oc1ccccc1`, the cytotoxicity call with HSkMC and in the assay with HepG2 was “inactive” each time. In the assay with S. aureus RN4220, the growth inhibition call is “inactive”.
In the case of `Nc1nc2c(s1)COCC2`, the cytotoxicity call with HSkMC and in the assay with HepG2 was “inactive” in each case. Besides, the growth inhibition call with S. aureus RN4220 was “inactive”.
In the case of `O=C(C[C@H]1CC[C@H]2[C@@H](COC[C@@H](O)CN2S(=O)(=O)c2cccc(Cl)c2)O1)NCCCN1CCOCC1`, the cytotoxicity call in the assay with HSkMC and in the assay on HepG2 was “inactive” throughout. Besides, the growth inhibition call in the assay with S. aureus RN4220 is “inactive”.
Turning to `C[C@H](CO)N1C[C@H](C)[C@@H](CN(C)Cc2ccc(Oc3ccccc3)cc2)Oc2c(NC(=O)c3ccc(-c4nccs4)cc3)cccc2C1=O`, the cytotoxicity call with HSkMC and in the assay on HepG2 was “inactive” in each case. The growth inhibition call with S. aureus RN4220 is “inactive”.
Regarding `C[C@H]1CCCCO[C@H](CN(C)S(=O)(=O)c2cccs2)[C@@H](C)CN([C@@H](C)CO)C(=O)c2cc(NC(=O)Nc3ccccc3)ccc2O1`, the cytotoxicity call in the assay with HSkMC and in the assay with HepG2 was “inactive” throughout. Further, the growth inhibition call in the assay with S. aureus RN4220 was “inactive”.
In the case of `Cc1noc(C)c1NC(=O)N(C)C[C@H]1OCCCC[C@@H](C)Oc2ccc(NC(=O)Nc3ccc(C(F)(F)F)cc3)cc2C(=O)N([C@@H](C)CO)C[C@H]1C`, the cytotoxicity call in the assay on HSkMC and in the assay with HepG2 was “inactive” each time. Moreover, the growth inhibition call in the assay on S. aureus RN4220 was “inactive”.
On to `Cc1ccc(S(=O)(=O)N(C)C[C@H]2Oc3ccc(NC(=O)CCCN(C)C)cc3C(=O)N([C@@H](C)CO)C[C@@H]2C)cc1`, for which the cytotoxicity call with HSkMC and in the assay on HepG2 was “inactive” each time. Moreover, in the assay on S. aureus RN4220, the growth inhibition call was “inactive”.
As to `CN(C)CCNC(=O)c1ccccn1`, the cytotoxicity call in the assay with HSkMC and in the assay with HepG2 was “inactive” throughout. The growth inhibition call in the assay on S. aureus RN4220 was “inactive”.
On to `O=C(C[C@H]1CC[C@H]2[C@@H](COC[C@@H](O)CN2C(=O)c2ccccn2)O1)NC1CCC1`, for which the cytotoxicity call with HSkMC and with HepG2 was “inactive” in each case. The growth inhibition call in the assay with S. aureus RN4220 is “inactive”.
Consider `COc1ccc(CN(C)C[C@@H]2OCCCC[C@H](C)Oc3ccc(NS(=O)(=O)c4ccc(C)cc4)cc3C(=O)N([C@H](C)CO)C[C@H]2C)cc1`, for which the cytotoxicity call in the assay on HSkMC and with HepG2 was “inactive” each time. In the assay with S. aureus RN4220, the growth inhibition call is “inactive”.
As to `Cn1nnc2c(C(N)=O)ncn2c1=O`, the cytotoxicity call with HSkMC and in the assay on HepG2 was “inactive” in each case. The growth inhibition call in the assay with S. aureus RN4220 is “inactive”.
For the compound `CCC(=O)Nc1ccc2c(c1)OC[C@@H](C)N(S(=O)(=O)c1cn(C)cn1)C[C@@H](C)[C@H](OC)CN(C)C2=O`, the cytotoxicity call with HSkMC and with HepG2 was “inactive” in each case. The growth inhibition call in the assay on S. aureus RN4220 is “inactive”.
`Cc1ccc(S(=O)(=O)Nc2cccc3c2O[C@@H](CN(C)Cc2ccc(Cl)c(Cl)c2)[C@H](C)CN([C@@H](C)CO)C3=O)cc1`: the cytotoxicity call in the assay on HSkMC and with HepG2 was “inactive” each time. Besides, the growth inhibition call with S. aureus RN4220 is “inactive”.
With `COc1ccc(S(=O)(=O)Nc2ccc3c(c2)C(=O)N([C@H](C)CO)C[C@H](C)[C@@H](CN(C)C(=O)Nc2ccc4c(c2)OCO4)OCCCC[C@H](C)O3)cc1`, the cytotoxicity call in the assay with HSkMC and in the assay with HepG2 was “inactive” throughout. The growth inhibition call in the assay on S. aureus RN4220 was “inactive”.
As to `O=C1CN(S(=O)(=O)Cc2ccccc2)C[C@@H]2[C@@H](c3ccc(C#Cc4ccc(F)cc4)cc3)[C@@H](CO)N12`, the cytotoxicity call in the assay with HSkMC and in the assay with HepG2 was “active” each time. Also, the growth inhibition call in the assay with S. aureus RN4220 is “inactive”.
In the case of `COc1cc(C(=O)O[C@H]2CC[C@@]3(C)[C@@H]4CC[C@H]5[C@]6(O)C[C@H](O)[C@@]7(O)[C@@H](CN8C[C@@H](C)CC[C@H]8[C@@]7(C)O)[C@]6(O)C[C@@]53O[C@@]24O)cc(OC)c1OC`, the cytotoxicity call with HSkMC and in the assay with HepG2 was “inactive” in each case. In addition, in the assay with S. aureus RN4220, the growth inhibition call was “inactive”.
Take `C[C@@H]1CN([C@H](C)CO)C(=O)Cc2cc(NC(=O)Cn3cnnn3)ccc2O[C@H]1CN(C)CC1CCCCC1`: the cytotoxicity call in the assay on HSkMC and with HepG2 was “inactive” each time. Also, the growth inhibition call in the assay on S. aureus RN4220 is “inactive”.
For `C[C@@H]1CN([C@H](C)CO)C(=O)c2cc(NS(=O)(=O)c3cn(C)cn3)ccc2O[C@@H](C)CCCCO[C@H]1CN(C)S(=O)(=O)c1cccs1`, the cytotoxicity call in the assay on HSkMC (human skeletal muscle cells) and in the assay on HepG2 was “inactive” each time. For the same compound, the growth inhibition call with S. aureus RN4220 is “inactive”.
`CN1CC(=O)N2C(Cc3c([nH]c4ccccc34)C2c2ccc3c(c2)OCO3)C1=O` (stereo not given): the cytotoxicity call in the assay with HSkMC and with HepG2 was “inactive” in each case. Also, in the assay on S. aureus RN4220, the growth inhibition call was “inactive”.
With `CC(C)=CCC[C@](C)(O[C@@H]1O[C@H](CO)[C@@H](O)[C@H](O)[C@H]1O)[C@H]1CC[C@]2(C)[C@@H]1[C@H](O)C[C@@H]1[C@@]3(C)CC[C@H](O)C(C)(C)[C@@H]3[C@@H](O[C@@H]3O[C@H](CO)[C@@H](O)[C@H](O)[C@H]3O[C@@H]3O[C@@H](C)[C@H](O)[C@@H](O)[C@H]3O)C[C@]12C`, the cytotoxicity call in the assay with HSkMC and in the assay with HepG2 was “inactive” in each case. For the same compound, the growth inhibition call with S. aureus RN4220 is “inactive”.
